Results from the RNAGym collection of RNA variant scans (doi:10.7554/elife.90254).
Read counts are not given, so values of variants with three or more changes are uncertain.

B1: LINE1-mini (parent)
chain: GGCAGAGCUCAACACAGCGUGGCAAAGUGGCUGUGGCUAGACUGCC

Variants of: B1
Assay: self-cleavage, relative activity (ratio to wild type); higher = more cleavage; in vitro, sequencing; the parent is a self-cleaving ribozyme

Variant | self-cleavage
G7A U34C C46G | 0.07
G7A U9C G21U | 0.14
G7A G27U U38G | 0.01
G7A G19U A26C | 0.05
G7C A11U A16U G33A G44U | 0.01
G7A G17A G21U U32C | 0.03
G7C A16G A41G | 0.01
G7C A41C C42A | 0.12
G7C C8A C18G G29U | 0.3
G7A U20G C45A | 0.12
G7A C37A C42G | 0.2
G7A G21A A39C G44U | 0.27
G7C A14C C23U C37U | 0.01
G7C C8G A11U C13A | 0.02
G7A G19U A25U | 0.05
G7C A11U G30U C46U | 0.04
G7C C10U A26U C46G | 0.02
G7A U9G G19C G21C | 0.02
G7C C8G G19A U20C | 0.05
G7A U9A C18U | 0.24
G7A G33A C42A G44A | 0.14

Variant | self-cleavage
G7A U32C U38G G40A | 0.01
G7A C18A G19U U20C U34C | 0.11
G7A G33A G35C | 0.05
G7C A25U C31U | 0.11
G7C C13A C23A G33U C42G | 0.05
G7A C15G C37G | 0.05
G7C A12C C23A | 0.03
G7A G22A C31G G33A | 0.13
G7A U32C C46A | 0.15
G7C A12C A26G | 0.02
G7A U32A G44C | 0.06
G7C A16C G35U | 0.03
G7A U9C G17A G22U A26C | 0.06
G7A C23A U28G | 0.03
G7A G21U C37A | 0.02
G7A C23G G27C | 0
G7A G17A C23A | 0.1
G7A U20A G27U G30A G36U | 0.07
G7A G17A G22A U28G | 0.14
G7A G21A G44U | 0.25
G7A G27C U32G | 0.06

Variant | self-cleavage
G7C A14U C15U G17U U38A | 0.04
G7C A11G G40A G44U | 0
G7A C13U A14U C31U | 0.27
G7A C15G G30U | 0.46
G7A C13A G21A G30U G36C | 0.31
G7C C10U C13A C31G A39C C46U | 0.02
G7A C13A G19U G30A G33U | 0.11
G7C C10G G29U A41U C42A | 0.01
G7A C15A G22U A24C G30C | 0.03
G7C C8U A16C G29A G44A | 0.07
G7A C13A U28C U32C U43C | 0.15
G7C A26C G33U | 0.03
G7C C10G A26C U32G | 0.02
G7C A16G A26C G44U | 0.07
G7C A25C A39U | 0.07
G7A U9G G30A A41G G44A | 0.04
G7A G17U C31A | 0.68
G7A G19A C37U | 0.33
G7C C10A G29U | 0.04
G7C A11G G30A | 0.02
G7A C15U U20C G40A G44U | 0.06

Variant | self-cleavage
G7A G19C G36U | 0.1
G7A C31G C42U | 0.24
G7C A16G G19U G29A C31A | 0.06
G7C C8G U20C G27A | 0.08
G7C A39U G40A | 0.53
G7A U9G A14C G21U G40A | 0.02
G7A C15A U34A U43C | 0.24
G7C C8U U9C A25C G27U | 0.04
G7A C23G G40U | 0.16
G7C A12C U20G G33C | 0.01
G7A C42G C45G | 0.04
G7A C18A A26G C46A | 0.06
G7C A14G U20C G27A G29U | 0.02
G7A U20G G22A G40A | 0.06
G7C A24G U32C U34C A39U | 0.06
G7A C13G C18G A26U | 0.04
G7C A11G C23A U38A C42U | 0.01
G7A G19C G40A C46U | 0.05
G7A C15A U32A | 0.09
G7C C13A U20A G30U | 0.01
G7C A11U C15U A24U U38G | 0.01
